102 compounds from article PMC6919601, “Identification of Plasmodium dipeptidyl aminopeptidase allosteric inhibitors by high throughput screening” (PLoS ONE, 2019) can be followed below.

Values joined by “and” are separate entries in the source; they are usually repeats but may differ in a detail not shown here. Identical values can stand only once. Out of some 110,000 compounds screened, about 230 (0.21%) showed an effect of 50% or more. The list shows a part of the results.
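Also: 30 min substrate incubation versus DMSO and 10 µM JCP410 controls.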

The target of this test is DPAP1 (Plasmodium falciparum, UniProt Q8IIJ9). As to the kind of experiment: primary screen, percent inhibition; read by cleavage of a fluorogenic dipeptide substrate; higher = more effect of the substance. Details: species or system P. falciparum D10 trophozoite lysates; single well.
Sequence of DPAP1 (Q8IIJ9 whole entry, looked up): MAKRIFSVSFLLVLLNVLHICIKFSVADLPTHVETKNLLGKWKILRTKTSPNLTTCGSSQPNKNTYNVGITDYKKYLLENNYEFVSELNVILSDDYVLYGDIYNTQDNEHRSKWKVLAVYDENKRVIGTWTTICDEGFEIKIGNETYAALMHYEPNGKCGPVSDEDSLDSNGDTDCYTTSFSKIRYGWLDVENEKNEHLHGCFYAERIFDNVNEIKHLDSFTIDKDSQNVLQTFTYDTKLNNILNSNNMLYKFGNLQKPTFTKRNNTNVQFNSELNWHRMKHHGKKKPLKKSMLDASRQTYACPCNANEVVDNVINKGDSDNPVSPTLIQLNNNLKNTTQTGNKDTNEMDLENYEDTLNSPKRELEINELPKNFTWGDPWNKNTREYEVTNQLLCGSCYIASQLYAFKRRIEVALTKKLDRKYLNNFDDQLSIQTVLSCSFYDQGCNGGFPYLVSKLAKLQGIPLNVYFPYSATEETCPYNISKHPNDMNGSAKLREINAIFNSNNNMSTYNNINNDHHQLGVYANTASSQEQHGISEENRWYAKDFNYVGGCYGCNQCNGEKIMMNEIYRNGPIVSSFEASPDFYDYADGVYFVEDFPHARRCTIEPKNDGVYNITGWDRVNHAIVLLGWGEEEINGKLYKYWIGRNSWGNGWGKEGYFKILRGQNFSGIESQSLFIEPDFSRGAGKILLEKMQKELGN
Regarding `COc1ccc2c(CNCCC3=CCCCC3)c(C(=O)O)n(C)c2c1`, the “% Inhibition @ 10 uM” value is recorded as -2.39%.
In the case of `O=c1c2c3c(sc2nc2n1CCCCC2)CCCCC3` it was -1.57%.
With `O=C(Nc1ccc(F)cc1)c1ccccc1NC(=O)c1ccccc1C(=O)O` the figure was -2.65%.
On to `Cn1c(=O)c2[nH]c(-c3ccc(Cl)cc3)c(O)c2n(C)c1=O`, for which the “% Inhibition @ 10 uM” value turned out to be 0.67%.
With `NC(=S)N/N=C/c1sc(O)nc1Cl` the figure was 0.222%; with `COc1ccc(N2C(=O)/C(=C\c3ccc(Cl)cc3)S(=O)(=O)C2c2ccc(Cl)cc2)cc1` (stereo not drawn), -1.91%.
With `C=CCN1CC(c2nc3ccccc3n2Cc2ccccc2C)CC1=O` (stereo not drawn) the figure was -7.24%; with `O=C(O)c1ccccc1C(=O)Nc1ccc(S(=O)(=O)Nc2ccc(F)cc2)cc1`, -2.03%; with `Cc1cccc(N2C(=O)CC(N3CCN(c4ccccc4)CC3)C2=O)c1` (stereo not drawn), -0.48%.
With `O=C(Nc1ccc(N2CCCCC2)cc1)c1cccc(F)c1` the figure was -2.09%.
For the compound `Cc1cc(C)nc(NS(=O)(=O)c2ccc(NC(=O)COc3ccc(Cl)c(C)c3)cc2)n1`, the “% Inhibition @ 10 uM” value worked out at 5.25%.
In the case of `O=C(NCCN1CCOCC1)c1cc(-c2ccccc2)on1` it was -3.33%.
With `COc1ccc(N2CCN(Cc3cccc(O)c3)CC2)cc1` the figure was 3.9%.
Consider `CCC(c1nc2ccccc2n1C)C(O)(c1ccccc1)c1ccccc1` (stereo not drawn), for which the “% Inhibition @ 10 uM” value was -4.18%.
In the case of `CCC(C(=O)N1CCOCC1)n1nc(C)n2c(cc3cc(C)ccc32)c1=O` (stereo not drawn) it was -3.79%; in that of `O=C(c1ccncc1)N1CCC(c2c[nH]c3ccccc23)(c2c[nH]c3ccccc23)CC1`, 1.03%; in that of `CCc1nn(CC(=O)NCCc2ccc(OC)c(OC)c2)c(=O)c2cc3cc(F)ccc3n12`, 3.29%.
In the case of `CN(Cc1ccccc1)C(=O)c1cc2n(n1)C(C(F)(F)F)CC(c1ccccc1)N2` (stereo not drawn), the “% Inhibition @ 10 uM” value is listed as -2.6%.
Consider `CCOCCCNC(=O)c1oc(=O)c2ccccc2c1-c1ccc(C)cc1`, for which the “% Inhibition @ 10 uM” value is recorded as 1.9%.
For the compound `CC1=C(C(=O)OCC2CCCCC2)C(c2ccccc2Cl)CC(=O)N1` (stereo not drawn), the “% Inhibition @ 10 uM” value is -2.24%.
As to `N=C1/C(=C/c2ccc(O)cc2)C(=O)N=C2SC(COc3ccccc3)=NN12`, the “% Inhibition @ 10 uM” value was -1.6%.
On to `Cc1ccccc1NC(=O)C(C)Oc1ccccc1` (stereo not drawn), for which the “% Inhibition @ 10 uM” value is given as -6.39%.
In the case of `Cc1ccccc1CSCc1ccc(C(=O)NCc2ccco2)o1` it was 1.41%.
With `O=C(N(Cc1ccccc1)c1ccccn1)C12CC3CC(CC(C3)C1)C2` the figure was -4.18%; with `Cc1ccc2nsnc2c1NC(=O)c1ccc2c(c1)OCCO2`, -0.725%.
Turning to `c1ccc2c(CNc3ccc(CNc4nc[nH]n4)cc3)cccc2c1`, the “% Inhibition @ 10 uM” value is listed as -1.61%.
In the case of `CCOc1cc(CN2CCN(c3cccc(C(F)(F)F)c3)CC2)ccc1O` it was -5.65%.
Regarding `CC(=O)N1CCN(c2csc3ccccc3c2=O)CC1`, the “% Inhibition @ 10 uM” value is given as -0.972%.
`CCOC(=O)N1CCN(CC(O)COc2ccc(C34CC5CC(CC(C5)C3)C4)cc2)CC1` (stereo not drawn): the “% Inhibition @ 10 uM” value is 0.343%.
For `CC1(C)Cc2c(cnn2-c2ccccc2)-c2[nH]c3ccccc3c21`, the “% Inhibition @ 10 uM” value was determined as 4.42%.
For the compound `CC(C)CCN1CCC(CNS(=O)(=O)c2ccc(-c3cc(C(F)(F)F)no3)s2)CC1`, the “% Inhibition @ 10 uM” value was 9.33%.
With `O=C(CSc1nc2ccccc2nc1N1CCOCC1)N1CCN(Cc2ccccc2)CC1` the figure was -1.72%; with `NS(=O)(=O)c1ccc(CCNC(=O)c2cc3c(nc2O)CCCC3)cc1`, -5.72%; with `COc1cc(-c2noc(CCCC(=O)NCc3ccccc3)n2)cc(OC)c1OC`, 2.21%.
With `CC(=O)N1C2=C(CCCC2)C(=O)NC12CCCCC2` the figure was -3.12%; with `CC(C)C(C(=O)Nc1cccc(Cl)c1)N1C(=O)c2ccccc2C1=O` (stereo not drawn), -4.82%.
In the case of `Cc1cc(C)n(CCCNC(=O)C(=O)NCCCn2nc(C)cc2C)n1` it was 8.27%; in that of `CSc1nc(O)c2cnn(-c3ccc(C)cc3)c2n1`, -1.54%; in that of `O=[N+]([O-])c1ccc2[nH]c(-c3ccc(O)nn3)nc2c1`, -1.97%.
As to `CCN(CC)C(=O)CSc1nnc(-c2ccc(OC)cc2)o1`, the “% Inhibition @ 10 uM” value is on record as -1.26%.
Take `O=C(Nc1ccccc1Br)c1ccccc1F`: the “% Inhibition @ 10 uM” value is reported as -4.94%.
In the case of `CCCCC(=O)Nc1ccc(C)cc1NC(=O)CCCC` it was -2.24%.
For `OC1=C2C(=Nc3ncnn3C2c2ccc(Cl)cc2Cl)CCC1` (stereo not drawn), the “% Inhibition @ 10 uM” value is -3.37%.
In the case of `COc1ccc(C2C(C(=O)c3ccc(Cl)cc3)=C(O)C(=O)N2c2ccc(NC(C)=O)cc2)cc1` (stereo not drawn) it was 2.82%; in that of `CCOC(=O)c1c(S(=O)(=O)N2CCN(C(=O)c3ccco3)CC2)c(C)n(C)c1C`, 1.26%; in that of `Cn1c(=O)[nH]c(O)c(/C=C/c2ccnc3ccccc23)c1=O`, 0.279%.
As for `O=C1Nc2ccccc2C1=C1CCCCC1`, the “% Inhibition @ 10 uM” value was 39.9%.
With `C=CCOC(=O)c1cn(CC)c2nc(C)ccc2c1=O`, the “% Inhibition @ 10 uM” value is recorded as -1.69%.
On to `CCCCc1ccc(C=C2C(=O)c3ccccc3C2=O)s1`, for which the “% Inhibition @ 10 uM” value turned out to be 0.273%.
With `NC(=O)NC(c1ccccc1)c1ccc(Cl)cc1` (stereo not drawn) the figure was 4.61%; with `Cc1ccc(NC(=O)CSc2nc(N)cc(N)n2)c(C)c1`, -1.55%; with `COc1ccc(CN2CCN(c3ccc(C(C)=O)cc3)CC2)cc1Br`, 5.45%.
For the compound `N#CCNC(=O)[C@H](Cc1cc(Cl)c(O)c(Cl)c1)NC(=O)c1ccc(Cl)cc1`, the “% Inhibition @ 10 uM” value is on record as 0.173%.
In the case of `CS(=O)(=O)Nc1ccccc1C(=O)NCCc1ccccc1` it was 2.95%; in that of `CC1=C(C(=O)Nc2ccccc2C)C(c2ccccc2F)NC(=O)N1` (stereo not drawn), 47.4%.
In the case of `CCCc1ccc2c(N)c(C#N)sc2n1` it was -3.63%; in that of `O=C(NC1CCCCC1)c1cc(-c2ccccn2)nc2ccccc12`, -5.8%; in that of `Cc1ccc2nc3c(cc(C(=O)NC4CCCCC4)c(=N)n3Cc3cccnc3)c(=O)n2c1`, -3.27%.
In the case of `COc1ccccc1C(=O)NCc1ccc2c(c1)OCO2` it was -3.04%; in that of `CNCCCC1Sc2ccccc2Oc2ccccc21` (stereo not drawn), -5.59%; in that of `CCO/N=C1/CC(c2ccccc2)Cc2noc(C)c21` (stereo not drawn), -0.902%.
Take `CCCCCC(=O)c1c(C)[nH]c(C(=O)OCC)c1C`: the “% Inhibition @ 10 uM” value is on record as -0.771%.
With `CCCN1CCC(N2CCN(C/C=C/c3ccccc3)CC2)CC1`, the “% Inhibition @ 10 uM” value is listed as -3.27%.
Consider `Cc1nc2cc3sc(C)nc3cc2s1`, for which the “% Inhibition @ 10 uM” value is -2.91%.
On to `Cc1nc(S(=O)(=O)N(C)Cc2ccccc2)c(C#N)c(C)c1Cl`, for which the “% Inhibition @ 10 uM” value is recorded as 0.503%.
As to `Cc1ccnc(NC(=O)c2cccs2)c1`, the “% Inhibition @ 10 uM” value was -8.17%.
In the case of `CCC(=O)N(CCN(C(=O)CC)c1ccccc1)c1ccccc1` it was -2.58%; in that of `CNC(=O)/C(=C\c1ccco1)NC(=O)c1ccc(C)cc1`, 0.76%; in that of `CC(CN1CCOCC1)C(=O)c1ccccc1` (stereo not drawn), -1.82%.
With `CCc1cc(=O)oc2c(C)c3c(cc12)CN(Cc1ccc(OC)c(OC)c1)CO3` the figure was 0.895%; with `O=C(Cc1ccccc1)Nc1c(-c2ccccc2)nc2ccccn12`, 0.813%; with `COc1ccc(C=O)cc1Cn1c(=O)n(CC(=O)NCc2ccccc2Cl)c(=O)c2sccc21`, 1.82%.
As for `CS(=O)(=O)N1CCN(Cc2ccc(C(F)(F)F)cc2)CC1`, the “% Inhibition @ 10 uM” value is recorded as 4.65%.
With `O=C1CC(c2csc(-c3ccccc3)n2)C2(CCCCC2)O1` (stereo not drawn) the figure was 4.15%; with `O=C(CSc1ncnc2c1sc1nc(N3CCOCC3)c3c(c12)CCCC3)Nc1ccccn1`, -5.41%.
On to `O=C(O)CSc1ccccc1C(=O)O`, for which the “% Inhibition @ 10 uM” value was -3.21%.
In the case of `O=C(NC1CCCCC1)/C(=C\c1ccco1)NC(=O)c1ccc(Cl)cc1` it was -2.44%; in that of `FC(F)(F)c1ccc(N2CCN(c3ccc(Cl)nn3)CC2)nc1`, -0.551%; in that of `CCn1c2ccccc2c2cc(CNc3ccc(Br)c(C)c3)ccc21`, -4.75%.
`O=C(NCc1ccccc1)N[C@@H](Cc1ccc2ccccc2c1)C(=O)N[C@@H](CCc1ccccc1)C(=O)C[N+](=O)[O-]`: the “% Inhibition @ 10 uM” value is recorded as -2.35%.
In the case of `O=C(c1ccc(CNS(=O)(=O)c2cccc(Cl)c2)cc1)N1CCCCC1` it was 4.57%.
`CC(C)OCCCn1c(=O)c2ccccc2n2c(CCC(=O)NCc3ccco3)nnc12`: the “% Inhibition @ 10 uM” value is given as -1.44%.
Take `CCCCOC(=O)/C(=C/C=C/c1ccccc1)NC(=O)c1ccccc1`: the “% Inhibition @ 10 uM” value amounted to 0.685%.
Regarding `Cc1nc(CSc2nnc(-c3ccc(Cl)cc3)o2)cs1`, the “% Inhibition @ 10 uM” value is listed as -2.63%.
In the case of `CC(NC(=O)c1noc2c1COc1ccccc1-2)c1ccc2c(c1)OCCO2` (stereo not drawn) it was 21.3%; in that of `COc1cccc(C(c2c(O)oc3ccccc3c2=O)c2c(O)oc3ccccc3c2=O)c1`, 7.49%.
`CCC/N=C1\CC(c2ccccc2)CC(O)=C1C(=O)CCC` (stereo not drawn): the “% Inhibition @ 10 uM” value is on record as -4.76%.
Consider `CCCCCCSc1nc2nc(C)cc(C)n2n1`, for which the “% Inhibition @ 10 uM” value is given as -3.01%.
With `COc1ccc(-c2cnc3ncnc(O)c3n2)cc1` the figure was 2.44% and 0.907%.
Regarding `COc1ccc(C2NCCc3cc(OC)c(OC)cc32)cc1OC` (stereo not drawn), the “% Inhibition @ 10 uM” value is listed as -5.5%.
In the case of `O=C(Nc1ccc2ccccc2c1)c1ccc(Br)o1`, the “% Inhibition @ 10 uM” value was -2.24%.
With `Cc1cc(C)c(OCCNC(C)(C)C)c(Cl)c1` the figure was -2.97%.
With `C=CCSc1nc2cc(OC)ccc2[nH]1` the figure was -0.582%; with `Cc1ccc(C)c(N(CC(=O)NC2CC3CCC2C3)S(=O)(=O)c2ccccc2)c1` (stereo not drawn), -4.56%.
As to `O=C(O)CCc1ccc(-c2ccccc2)n1-c1cc(Cl)ccc1O`, the “% Inhibition @ 10 uM” value stood at 5.52%.
In the case of `COc1cccc(CNCc2c(C(=O)O)n(Cc3ccccc3F)c3cc(C)ccc23)c1` it was -0.177%; in that of `Cc1ccc(S(=O)(=O)Nc2ccccc2Cl)cc1C(N)=O`, -1.65%.
As to `O=C1c2cccnc2C(=O)N1C1CCCCC1`, the “% Inhibition @ 10 uM” value is -1.08%.
For `FC(F)(F)c1cccc(-c2nnn3c2nc(NCc2ccco2)c2ccccc23)c1`, the “% Inhibition @ 10 uM” value is given as -4.69%.
For the compound `Cc1ccc(OCCCCn2ccnc2)cc1`, the “% Inhibition @ 10 uM” value is -5.96%.
On to `Cc1ccc(CN(CC(=O)NCc2ccncc2)S(=O)(=O)c2ccc(C)cc2)cc1`, for which the “% Inhibition @ 10 uM” value is listed as 0.389%.
As for `COc1ccc(OC)c(NC(=O)C2=C(C)NC(=O)NC2c2cccc(Cl)c2)c1` (stereo not drawn), the “% Inhibition @ 10 uM” value came to 2.4%.
